Assay results published in the supplement of paper PMC7266297.
Structures can show the parent of a compound that is named as a salt. This is one part of the list. Repeats are few or missing, and single values can be far off.

Key:
KB-3-1 = assay: growth inhibition relative to DMSO control (SRB); cervical cancer cells: KB-3-1 is the parent and KB-V1 overexpresses MDR1; SRB is the sulforhodamine B stain; higher = more growth inhibition; conditions: 1 µM; 72 h
KB-V1 = assay: as above; conditions: 1 µM; 72 h
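Note: Read-out is SRB optical density at 490 nm, with the control being wells given 0.5% DMSO vehicle, and compound added one day after cells were plated.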

| SMILES | growth inhibition (KB-3-1) | growth inhibition (KB-V1) |
| --- | --- | --- |
| O=C(Nc1cccc2cccnc12)c1ccc(N2C(=O)[C@@H]3[C@H](C2=O)[C@@H]2C=C[C@H]3C2)cc1 [IWR-1-endo] | < 0% | 4.8% |
| CN(CCOc1ccc(CC2SC(=O)NC2=O)cc1)c1ccccn1 (centres undefined) [Rosiglitazone] | < 0% | < 0% |
| O=C(O)c1ccc(C=C2SC(=S)N(c3cccc(C(F)(F)F)c3)C2=O)cc1 | 3.98% | < 0% |
| CC1(C)CCC2=C(O1)c1ccccc1C(=O)C2=O [Beta-Lapachone] | 0.442% | 1.77% |
| COc1cc(Nc2ncc(F)c(Nc3ccc4c(n3)N(COP(=O)(O)O)C(=O)C(C)(C)O4)n2)cc(OC)c1OC [Fostamatinib (R788)] | 34% | 3.73% |
| CC(C)c1cc(-c2ccc(F)c3ccccc23)nc(N)n1 | < 0% | < 0% |
| O=C(Nc1cccc(C(F)(F)F)c1)Nc1cc(S(=O)(=O)NC2CC2)ccc1-c1ccsc1 | 5.96% | < 0% |
| CN1CCN(c2nc(C3=C(c4c[nH]c5ccccc45)C(=O)NC3=O)c3ccccc3n2)CC1 [Sotrastaurin] | 10.3% | 28.4% |
| O=C(O)Cn1nnc(-c2cc(N3CCC(Oc4cc(F)ccc4Br)CC3)no2)n1 | 28.7% | 42.6% |
| Nc1ncn([C@H]2C[C@H](O)[C@@H](CO)O2)c(=O)n1 [Decitabine] | 61.3% | 51.1% |
| O=c1c(O)c(-c2ccc(O)c(O)c2)oc2cc(O)cc(O)c12 [Quercetin] | < 0% | < 0% |
| Cc1ccc(CNc2ncnc3ccc(-c4ccc(CO)o4)cc23)o1 | 55.9% | 16.7% |
| CCCCNc1ccc(C(=O)OCCN(C)C)cc1 [Tetracaine HCl] | 24.2% | 2.13% |
| COc1cc(F)c(C(C)C)cc1-c1ccc(C(F)(F)F)cc1CN1C(=O)O[C@H](c2cc(C(F)(F)F)cc(C(F)(F)F)c2)[C@@H]1C [Anacetrapib (MK-0859)] | < 0% | 3.12% |
| CCCCCCCCc1ccc(CCC(N)(CO)CO)cc1 [Fingolimod (FTY720) HCl] | 36.2% | 11% |
| COc1ccc(CCC(=O)Nc2nc3ccc(Cl)cc3s2)cc1OC | 14.9% | 9.32% |
| COc1cccc(-c2cc(=O)c3ccccc3o2)c1N | 30% | 40.4% |
| Oc1cc(O)c(Cl)cn1 [Gimeracil] | 21.6% | 21.6% |
| CO[C@H]1C[C@@H]2CC[C@@H](C)[C@@](O)(O2)C(=O)C(=O)N2CCCC[C@H]2C(=O)O[C@H]([C@H](C)C[C@@H]2CC[C@@H](O)[C@H](OC)C2)CC(=O)[C@H](C)/C=C(\C)[C@@H](O)[C@@H](OC)C(=O)[C@H](C)C[C@H](C)/C=C/C=C/C=C/1C [Rapamycin (Sirolimus)] | 74.9% | 49.7% |
| CC(=O)Nc1nc2c(Oc3cc(-c4ccc(C(F)(F)F)cc4)ncn3)cccc2s1 | < 0% | < 0% |
| CN1CCN(CCOc2cc(OC3CCOCC3)c3c(Nc4c(Cl)ccc5c4OCO5)ncnc3c2)CC1 [Saracatinib (AZD0530)] | 32.4% | 30% |
| COc1cc2ncnc(Nc3ccc(O)c(Br)c3)c2cc1OC | 29.4% | 14.5% |
| CN1C(=O)C(Cc2c[nH]c3ccccc23)NC1=S (centres undefined) [Necrostatin-1] | 42% | < 0% |
| C=CC(=O)Nc1cccc(Nc2nc(Nc3ccc(N4CCN(C(C)=O)CC4)cc3OC)ncc2C(F)(F)F)c1 | < 0% | < 0% |

| SMILES | growth inhibition (KB-3-1) | growth inhibition (KB-V1) |
| --- | --- | --- |
| COc1ccc(Cl)cc1NC(=O)Nc1cc(C)nc2ccccc12 | 52.2% | 16.7% |
| O=C(Nc1ccccc1Br)N[C@@H]1CCN(c2ccc(C(F)(F)F)cn2)C1 | 40.7% | 60.6% |
| O=C(O)CCCN1CCC(O[C@@H](c2ccc(Cl)cc2)c2ccccn2)CC1 [Bepotastine Besilate] | < 0% | 20.4% |
| CNC(=O)c1ccccc1Nc1nc(Nc2ccc(N3CCOCC3)cc2OC)ncc1Cl | 66.9% | 49.8% |
| CC[C@H](Nc1ncnc2[nH]cnc12)c1nc2cccc(F)c2c(=O)n1-c1ccccc1 [CAL-101 (Idelalisib, GS-1101)] | 0.943% | < 0% |
| CC(C)C[C@H](NC(=O)[C@@H](NC(=O)c1cccc(-c2ccccc2)n1)[C@@H](C)O)B(O)O | 72.5% | 52% |
| CCN(Cc1ccncc1)C(=O)C(CO)c1ccccc1 (centres undefined) [Tropicamide] | 47.1% | 22.3% |
| COc1cc2c(Oc3ccc(NC(=O)C4(C(=O)Nc5ccc(F)cc5)CC4)cc3F)ccnc2cc1OCCCN1CCOCC1 | 95% | 81.2% |
| CC(C)n1c(/C=C/C(O)CC(O)CC(=O)O)c(-c2ccc(F)cc2)c2ccccc21 (centres undefined) [Fluvastatin Sodium] | 51.5% | 22.3% |
| Cc1c(-c2ccccc2)oc2c(C(=O)OCCN3CCCCC3)cccc2c1=O [Flavoxate HCl] | < 0% | < 0% |
| CCOC(=O)[C@H](CCc1ccccc1)N[C@@H](C)C(=O)N1CCC[C@H]1C(=O)O [Enalapril Maleate] | 42.6% | 20.1% |
| C[C@@H]1C[C@H]2[C@@H]3CCC4=CC(=O)C=C[C@]4(C)[C@@]3(F)[C@@H](O)C[C@]2(C)[C@@]1(O)C(=O)CO [Dexamethasone (DHAP)] | 30.3% | 46.8% |
| CCCCC(=O)N(Cc1ccc(-c2ccccc2-c2nnn[nH]2)cc1)[C@H](C(=O)O)C(C)C [Valsartan] | 46.6% | 23.3% |
| CCc1c2c(nc3ccc(O)cc13)-c1cc3c(c(=O)n1C2)COC(=O)[C@]3(O)CC | 71.5% | 77.2% |
| OCCn1cc(-c2cnc3nnn(Cc4ccc5ncccc5c4)c3n2)cn1 | 20.3% | 33.5% |
| O=c1cc(-c2ccccc2)oc2cc(O)c(O)c(O)c12 [Baicalein] | < 0% | 40.2% |
| C=C1C(=O)O[C@@H]2/C=C(\C)CC/C=C(\C)CC[C@@H]12 [Costunolide] | 25.7% | 40.3% |
| C[C@@]1(c2cc(-c3cncnc3)c(F)cc2F)CCSC(N)=N1 | 28% | 19.6% |
| O=C(/C=C/c1ccc(O)c(O)c1)OCCc1ccccc1 [Caffeic Acid Phenethyl Ester] | 64.1% | 22.8% |
| CN(C)CCN1C(=O)c2cccc3cc(N)cc(c23)C1=O [Amonafide] | 71.3% | 67.2% |
| COc1ccccc1OCC(O)CN1CCN(CC(=O)Nc2c(C)cccc2C)CC1 (centres undefined) [Ranolazine 2HCl] | 9.53% | 40.5% |
| O=C1NC(=O)C(c2ccccc2[N+](=O)[O-])=C1Nc1ccc(O)c(Cl)c1 | < 0% | < 0% |
| Nc1nc(N)c2nc(-c3cccc(O)c3)cnc2n1 | 62.6% | 39.7% |
| Cc1cnc(NC(=O)Nc2cc(Br)c(C)cc2OC[C@@H]2CNCCO2)cn1 | 32.2% | 6.38% |

| SMILES | growth inhibition (KB-3-1) | growth inhibition (KB-V1) |
| --- | --- | --- |
| CCOC(=O)[C@H](CCc1ccccc1)N[C@H]1CCc2ccccc2N(CC(=O)O)C1=O [Benazepril HCl] | 10.2% | 35.1% |
| COc1ccnc2[nH]cc(C(=O)C(=O)N3CCN(C(=O)c4ccccc4)C[C@H]3C)c12 | < 0% | 4.26% |
| Cc1cc(C)c2c(c1)[C@@H](N(Cc1cc(C(F)(F)F)cc(C(F)(F)F)c1)c1nnn(C)n1)CCCN2C[C@H]1CC[C@H](C(=O)O)CC1 | 2.81% | 7.07% |
| OCCOCCN1CCN(C2=Nc3ccccc3Sc3ccccc32)CC1 [Quetiapine Fumarate] | 49% | 24% |
| CN1C(C(=O)Nc2ccccn2)=C(O)c2sc(Cl)cc2S1(=O)=O [Lornoxicam] | 24.5% | 21.3% |
| CCOC(=O)[C@H]1O[C@@H]1C(=O)N[C@@H](CC(C)C)C(=O)NCCC(C)C [Aloxistatin] | 56.1% | 6.79% |
| Cc1cc(Cl)ccc1OCCCC(=O)NO [Droxinostat] | 15.6% | 41.8% |
| Cc1ccc([N+](=O)[O-])cc1S(=O)(=O)N(C)/N=C/c1cnc2ccc(Br)cn12 | 99.4% | 98.4% |
| CC(C)c1cc(C(=O)N2Cc3ccc(CN4CCN(C)CC4)cc3C2)c(O)cc1O | 91.7% | 70% |
| Cc1ccc(-n2nc(C(C)(C)C)cc2NC(=O)Nc2ccc(OCCN3CCOCC3)c3ccccc23)cc1 [BIRB 796 (Doramapimod)] | 21.5% | 10.4% |
| COc1nc(C)cnc1NS(=O)(=O)c1cccnc1-c1ccc(-c2nnco2)cc1 [Zibotentan (ZD4054)] | 0.324% | 36% |
| O=[N+]([O-])c1ccc2c(c1)S(=O)(=O)C=C2 [Stattic] | 79.2% | 36.5% |
| C=CC(=O)Nc1cccc(Nc2nc(Nc3ccc(OCCOC)cc3)ncc2F)c1 | 26.1% | 24% |
| COc1ccccc1N1CCN(CCN2C(=O)CC3(CCCC3)CC2=O)CC1 | < 0% | < 0% |
| CNS(=O)(=O)CCc1ccc2[nH]cc(C3CCN(C)CC3)c2c1 [Naratriptan] | 29.4% | 14.3% |
| CN(C)CC/C=C1/c2ccccc2Sc2ccc(Cl)cc21 [Chlorprothixene] | 51.2% | 24.3% |
| CC12CC3CC(C)(C1)CC(N)(C3)C2 [Memantine HCl] | 20.8% | 29.4% |
| Nc1ccn([C@@H]2O[C@H](CO)[C@@H](O)C2(F)F)c(=O)n1 [Gemcitabine] | 80.1% | 48.6% |
| O=C(O)c1ccc(Nc2ncc3c(n2)-c2ccc(Cl)cc2C(c2c(F)cccc2F)=NC3)cc1 | 96.2% | 94.8% |
| COc1ccc(C[C@H](NC(=O)[C@H](C)NC(=O)CN2CCOCC2)C(=O)N[C@@H](Cc2ccccc2)C(=O)[C@@]2(C)CO2)cc1 | 100% | 38% |
| C[C@H](NC(=O)Cc1cc(F)cc(F)c1)C(=O)N[C@@H]1C(=O)N(C)c2ccccc2-c2ccccc21 | < 0% | < 0% |
| CC(C)(C)NS(=O)(=O)c1cncc(-c2cc(F)c3nc(N)nn3c2)c1 | 45.2% | 18.4% |
| O=C(NCc1cccc(O)c1)Nc1nc(-c2ccncc2)cs1 | 52.9% | 81.8% |
| N=C(N)NC(=N)NCCc1ccccc1 [Phenformin HCl] | 29.6% | 14.9% |
